For 106 molecules, inhibition results are on record in PubChem BioAssay AID434955 (Southern Research Specialized Biocontainment Screening …, 2010).

This is one part of the list. The main result of the screen is listed elsewhere. These columns were measured beside it and carry no call. Compounds called inactive in the main read-out are mostly missing here.

Usually inhibition stands for the relative decrease from the control value, in per cent.

The test is described as follows: beta-lactam sensitization of Mtb H37Rv, H37Rv (AID 434955).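 Note: growth measured after seven days incubation then overnight dye step; 0% = bacteria only wells and 100% = bacteria with antibiotic.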 The following applies: M. tuberculosis H37Rv growth with meropenem, percent inhibition; measured here: primary screen without meropenem; at 25 µM.
In the case of `O=C(Nc1ccc(-n2cccn2)cc1)C1CCN(Cc2ccccn2)CC1`, the inhibition was -8.74%.

For the molecule `COc1ccc(-c2csc3ncnc(N4CCN(c5cccc(Cl)c5)CC4)c23)cc1`, the inhibition was -0.6%.

On to `CCn1cc(C(=O)NN)c(=O)c2cc(F)c(N3CCN(C)CC3)cc21`, for which the inhibition stood at 4.97%.

Regarding `O=C(Cn1ncc2c(=O)oc3ccccc3c21)NCCCN1CCCC1=O`, the inhibition is -13.1%.

With `O=C(Nc1cccc(NC(=O)c2cccs2)c1)c1ccc(Br)o1`, the inhibition was 4.61%.

Consider `Cc1cc2[nH]c(=O)c(=O)[nH]c2cc1S(=O)(=O)NCc1ccc(Cl)cc1`, for which the inhibition was -6.54%.

`C=CC(=C)CC(NC)c1ccccc1` (stereo unspecified): the inhibition came to 4.39%.

Turning to `COc1ccc(/C=N/NC(=O)c2ccc3c(c2)OCCO3)c(OC)c1`, the inhibition is 5.21%.

Take `O=C(CSc1ccc2nnc(-c3ccccn3)n2n1)Nc1ccccc1`: the inhibition amounted to 1.17%.

For `CC(C)OCCCNc1ncnc2c1[nH]c1ccccc12`, the inhibition turned out to be 1.73%.

For `CCn1cc(C(=O)NCC2CCCO2)c(=O)c2cc(S(=O)(=O)N3CCC(C)CC3)ccc21` (stereo unspecified), the inhibition is -0.99%.

For `CCOC(=O)c1sc2nc(C)nc(SC(C)C(=O)NC3CC3)c2c1C` (stereo unspecified), the inhibition amounted to 61.1%.

`CCc1nnc(NC(=O)CSc2nnc(Cc3ccccc3)n2-c2ccc(OC)cc2)s1`: the inhibition is -0.28%.

`CN(Cc1ccncn1)C(=O)C1CCC(=O)N(Cc2cccc(C(F)(F)F)c2)C1` (stereo unspecified): the inhibition was determined as 2.04%.

For `CC1(C)CCN2CCC(C)(C)c3c(O)ccc1c32`, the inhibition turned out to be 0.32%.

Consider `O=C(COCc1cc(-c2ccco2)on1)NC1CCCCC1`, for which the inhibition is -2.83%.

On to `COc1ccc(O)c(/C=N/NC(=O)CN2CCS(=O)(=O)CC2)c1`, for which the inhibition was -1.95%.

Regarding `Cc1ccc(S(=O)(=O)N2CCN=C2SCc2c(F)cccc2Cl)cc1`, the inhibition was -1.67%.

With `Cc1[nH]n(-c2ccccc2)c(=O)c1/C=N/NC(=O)c1cccc([N+](=O)[O-])c1`, the inhibition stood at 9.39%.

For the molecule `CCCCc1nc2cc(C(=O)N3CCCCC3CCO)ccc2o1` (stereo unspecified), the inhibition was 3.44%.

On to `Cc1ccc(C)c(N2CCN(C(=O)CCS(=O)(=O)c3ccc4c(c3)CCN4C(=O)C3CC3)CC2)c1`, for which the inhibition turned out to be 2.28%.

For the molecule `Cc1ccc2c(c1)NC(=O)C(CC(=O)NC1CCCCC1C)O2` (stereo unspecified), the inhibition was -5.29%.

For `Cc1ccc2c(c1)CCCN2C(=O)c1cc2ccccc2oc1=O`, the inhibition was 27.6%.

In the case of `COc1ccc2sc(-c3ccc(SC)cc3)c(C#CC(C)(C)O)c2c1`, the inhibition was 65.9%.

Take `O=C(O)CCCN1C(=O)/C(=C/c2ccc(-c3nc4ccccc4s3)o2)SC1=S`: the inhibition was 17.2%.

For the molecule `COCCn1c(N2CCN(c3ccc(OC)cc3)CC2)nc2c1c(=O)n(C)c(=O)n2C`, the inhibition turned out to be 0.85%.

`O=C(NC1CCCN(c2ccc(C(F)(F)F)cn2)C1)c1cc(Cl)ccc1F` (stereo unspecified): the inhibition amounted to 5.81%.

In the case of `CCCOC1CCCN(C(=O)c2cc(COc3ccc(F)c(F)c3)on2)C1` (stereo unspecified), the inhibition worked out at 13.8%.

On to `N#Cc1c(SCC(=O)O)nc(N2CCCCC2)c2c1CCCC2`, for which the inhibition was 23.1%.

For `COc1ccc(OC)c(N(CC(=O)NC2CCCCCC2)S(=O)(=O)c2ccc(C)cc2)c1`, the inhibition was found to be 4.92%.

Turning to `Cc1occc1C(=O)N1CCC2(CCCN(Cc3ccc(F)c(F)c3)C2)C1` (stereo unspecified), the inhibition turned out to be 13.6%.

As for `Cc1oc2c(CN3CCCC(C)C3)c(O)ccc2c(=O)c1-c1ccccc1` (stereo unspecified), the inhibition was 0.44%.

On to `COc1ccc(CCNC(=O)c2c(C)nn(-c3ccccc3)c2Cl)cc1`, for which the inhibition is -4.93%.

With `CCOC(=O)N1CCN(c2ccncc2S(=O)(=O)N2CCCCC2)CC1`, the inhibition is -0.06%.

Regarding `Cc1cc(C)nc(CCNC(=O)CC2C(=O)NCCN2Cc2ccc(F)cc2Cl)n1` (stereo unspecified), the inhibition was -4.3%.

For `CC(C)Oc1ccc(N2CC(C(=O)Nc3ccccc3F)CC2=O)cc1` (stereo unspecified), the inhibition came out at 33%.

Consider `Cc1cccc(-n2nc([N+](=O)[O-])c(=NC3CCN(Cc4ccccc4)CC3)n2O)c1`, for which the inhibition was -8.04%.

On to `O=C(c1ccc(S(=O)(=O)N2CCCC2)cc1)N1CCN(c2ccccc2F)CC1`, for which the inhibition is -2.34%.

As to `CCOc1ccc(NC(=O)c2ccccc2SC)cc1`, the inhibition was 7.12%.

Regarding `CCCn1cc(S(=O)(=O)c2ccccc2)c(=O)c2cc(CC)ccc21`, the inhibition was 4.99%.

For the molecule `CCOC(=O)C1CCCCN1Cc1ccc(F)c(Br)c1` (stereo unspecified), the inhibition is 2.82%.

`CCOc1cccc2sc(NC(=O)CCS(=O)(=O)c3ccccc3)nc12`: the inhibition stood at 23.1%.

With `O=C(CSc1ccc2nnc(-c3ccccn3)n2n1)Nc1ccccc1F`, the inhibition is -0.82%.

Regarding `CC(C)CC(=O)Nc1ccc(F)c(Cl)c1`, the inhibition is -11.3%.

Turning to `COc1ccc(C(=O)n2c(SC)nc3cc4c(cc32)OCCO4)cc1`, the inhibition is 12.6%.

In the case of `O=C(c1cccn2c(=O)c3cc(Cl)ccc3nc12)N1CCOCC1`, the inhibition turned out to be 3.83%.

In the case of `Cc1nnc(SCC(=O)N2CCCC(N3CCN(c4ccc(F)cc4)CC3)C2)o1` (stereo unspecified), the inhibition is -1.06%.

In the case of `CCOc1ccc(S(=O)(=O)c2cn(C)c3cc(OC)c(OC)cc3c2=O)cc1`, the inhibition worked out at 3.2%.

`C=CCc1cc(Cl)ccc1OCCCNC(C)CC` (stereo unspecified): the inhibition was 4.45%.

Regarding `Clc1cc(Cl)c2nc(N3CCCC3)sc2c1`, the inhibition is -2.46%.

`Cc1ccc2c(c1)N(CC(=O)NCCCN1CCOCC1)C(=O)c1cccnc1O2`: the inhibition was -4.11%.

As to `CCN(CC)CCCn1c(=S)[nH]c2cc(Cl)ccc2c1=O`, the inhibition was -5.64%.

As for `COc1cc(CN2CCNC(=O)C2CC(=O)N(C)CCCN2CCOCC2)cc(OC)c1` (stereo unspecified), the inhibition was -16.3%.

For the molecule `Cc1oc(-c2ccc(Cl)cc2)nc1CN1CCCN(C(=O)c2ccco2)CC1`, the inhibition worked out at 17.2%.

Turning to `CCN1CCN(C(=O)c2ccc(Cn3c(=O)[nH]c4cc(OC)c(OC)cc4c3=O)cc2)CC1`, the inhibition was -11.9%.

Regarding `CC1=C(C(=O)NC(C)c2ccc3c(c2)OCCO3)C2(CCC(C)CC2)OC1=O` (stereo unspecified), the inhibition was -8.12%.

For `COC(=O)c1cc(NC(=O)Cc2ccccc2[N+](=O)[O-])cc(C(=O)OC)c1`, the inhibition was -8.41%.

In the case of `Cc1ccc(S(=O)(=O)c2nc(-c3ccc(F)cc3)oc2SCC(=O)NCC2CCCO2)cc1` (stereo unspecified), the inhibition was -3.3%.

As to `Cn1c2c(c(=O)n(C)c1=O)C(C(F)(F)F)(C(F)(F)F)N=C(CCC1CCCCC1)N2`, the inhibition is 11.6%.

`Cc1ccccc1N1CCN(C2CCCN(C(=O)CCC3(C)CC3)C2)CC1` (stereo unspecified): the inhibition was found to be 2.97%.

In the case of `CCCN1CC23C=CC(O2)C(C(=O)O)C3C1=O` (stereo unspecified), the inhibition is -5.08%.

With `Cc1cc(N2CCOCC2)nc2ccc(NC(=O)CCC(=O)N3CCC(C)CC3)cc12`, the inhibition is -4.85%.

`C/C(=N\NC(=O)c1ccncc1)c1c(O)n(-c2ccccc2)c(=O)[nH]c1=O`: the inhibition was determined as 53.8%.

As to `CC(Cc1cccs1)NC(=O)CCCn1nnnc1CN1CCOCC1` (stereo unspecified), the inhibition is -5.49%.

`OCCN1CCN(c2nc(-c3ccccc3)c3cc(Br)ccc3n2)CC1`: the inhibition stood at 69.4%.

As to `Cc1cc(=O)[nH]c(N/N=C/c2cccs2)n1`, the inhibition was determined as 1.34%.

As to `COc1cc(NC(=O)C2CCCCC2)c(OC)cc1NC(=O)CN1CCCCC1`, the inhibition is 25.7%.

As for `Fc1ccc(COc2ccc(Br)cc2CNCc2ccncc2)cc1`, the inhibition amounted to 9.77%.

Consider `CCOC(=O)C1CCN(c2ccc(C(N)=O)cc2[N+](=O)[O-])CC1`, for which the inhibition is 42.2%.

Turning to `COc1ccc(-c2cc(-c3n[nH]c(=S)n3-c3cc(OC)ccc3OC)[nH]n2)cc1`, the inhibition is -8.22%.

As for `O=C(Nc1nnc(SCc2ccc(Cl)cc2Cl)s1)C1COc2ccccc2O1` (stereo unspecified), the inhibition was -1.24%.

In the case of `COc1ccc(NCC(=O)N/N=C/C=C\c2ccccc2)cc1`, the inhibition is 89.9%.

Regarding `Cc1ncc(CN2CCCC(C(=O)Nc3ccc(-c4cccc(F)c4)cc3)C2)n1C` (stereo unspecified), the inhibition stood at 5.41%.

With `CCN(c1ccccc1)S(=O)(=O)c1cc2c(cc1C)n(C)c(=O)c(=O)n2C`, the inhibition is -14.8%.

Consider `Cc1ccccc1NS(=O)(=O)c1ccc2c3c(cccc13)C(=O)N2C`, for which the inhibition amounted to 14.6%.

For the molecule `Cc1cc(C(=O)N/N=C/c2cn(C)nc2C)c2ccccc2n1`, the inhibition worked out at 2.89%.

Take `Cc1nn(-c2ccccc2)c(Cl)c1/C=N/NC(=O)c1nn(C)cc1[N+](=O)[O-]`: the inhibition turned out to be 3.65%.

As to `CCCSc1nnc(Cn2c(=O)sc3ccccc32)n1-c1ccccc1`, the inhibition is -0.92%.

As to `COc1ccc(C(=O)N2CCN(S(=O)(=O)c3ccc(Cl)cc3)CC2)cc1OC`, the inhibition is -2.04%.

For the molecule `CCN(CC)S(=O)(=O)c1cccc(NC(=O)/C=C/c2ccc([N+](=O)[O-])cc2)c1`, the inhibition stood at 3.02%.

Take `COc1ccccc1CNC(=O)CNC(=O)c1sc2ccccc2c1Cl`: the inhibition is -4.17%.

For the molecule `COc1cccc(-c2n[nH]c(=S)n2Cc2ccco2)c1OC`, the inhibition was -13.4%.

Take `O=C(CSc1nnc(CNC(=O)c2ccccc2)o1)NCc1ccc2c(c1)OCO2`: the inhibition came out at 4.78%.

As for `CC1CCN(C(=O)COC(=O)Cc2c[nH]c3ccccc23)CC1`, the inhibition is -7.49%.

On to `CC(=O)c1sc(N/N=C\c2ccc(N(C)C)cc2)nc1C`, for which the inhibition is 18.3%.

Turning to `CCCCOC(=O)CCn1[nH]c(=O)c2ccccc2c1=O`, the inhibition is -7.81%.

As to `O=c1oc2ccc(Cl)cc2cc1-c1ccccc1`, the inhibition was -5.78%.

Regarding `Nc1nnc(SCCCC(=O)c2ccc(F)cc2)s1`, the inhibition was -2.25%.

Turning to `CCOC(=O)c1c(/N=C/c2cccc([N+](=O)[O-])c2O)sc(C)c1C`, the inhibition was -3.04%.

In the case of `Nc1ncnc2c1c(-c1ccc(Oc3ccccc3)cc1)cn2C1CCCC1`, the inhibition is -4.72%.

Take `CC(C)(O)CC[C@H](OC(=O)c1ccccc1)[C@](C)(O)[C@H]1CC[C@@]2(O)C3=CC(=O)[C@@H]4C[C@@H](O)[C@H](O)C[C@]4(C)C3CC[C@]12C` (stereo partly specified): the inhibition was -2.48%.

With `CCOCCOC(=O)c1[nH]c2c(c1C)C(=O)CC(c1ccc(N(C)C)cc1)C2` (stereo unspecified), the inhibition is 4.62%.

In the case of `O=C(Nc1ccc(-n2ccc(C(F)(F)F)n2)cc1)c1cccs1`, the inhibition turned out to be 37.9%.

With `CSc1nnc(-c2ccc(NC(N)=S)cc2)o1`, the inhibition was determined as 7.18%.

`CCOC(=O)COn1c(-n2nc(C)cc2C)nc2ccccc2c1=O`: the inhibition came out at 92.5%.

Regarding `O=C(COC(=O)c1ccccn1)Nc1nccs1`, the inhibition was -0.23%.

As for `CSc1ccccc1OCc1cc(C(=O)N2C[C@H]3CC[C@H]2C3)no1`, the inhibition is -0.65%.

Regarding `N#Cc1cc2c(nc1SCC(=O)Nc1sc3c(c1C#N)CCC3)CCCCC2`, the inhibition is -2.02%.

Consider `COc1ccc(CNS(=O)(=O)c2ccc3c(c2)C(C)(C)C(=O)N3C)cc1`, for which the inhibition is -1.03%.

In the case of `COC(=O)c1c(NC(=O)C2CC=CCC2C(=O)O)sc(C)c1C` (stereo unspecified), the inhibition is -0.15%.

For `Cc1sc2nc(CSCC(=O)Nc3ccccc3C#N)[nH]c(=O)c2c1C`, the inhibition is -0.53%.

On to `O=C(CSc1n[nH]c(=O)n1C1CC1)c1ccc2c(c1)OCCO2`, for which the inhibition worked out at 42.6%.

`Cc1ccc(NC(=O)CCS(=O)(=O)c2ccc3nc(C)sc3c2)cc1`: the inhibition is -12.9%.

Turning to `CCc1c(C)c(C#N)c2nc3ccccc3n2c1NCCN(C)C`, the inhibition was -0.14%.

For `O=C(Nc1ccc2oc(-c3ccc(Cl)c(Cl)c3)nc2c1)c1ncn[nH]1`, the inhibition turned out to be 50.6%.

Regarding `Cc1ccc(-c2noc(C3CCN(S(=O)(=O)c4ccc5c(c4)OCCO5)CC3)n2)o1`, the inhibition stood at 3.56%.
